# Measurements taken from the BET-seq Pho4 binding data (Le et al. 2018).
# Some of the results follow. The energies were worked out here from pooled read counts, against the library average; single values are noisy.
# Biological target: T1, Pho4 (S. cerevisiae) (UniProt P07270)
# T1 sequence: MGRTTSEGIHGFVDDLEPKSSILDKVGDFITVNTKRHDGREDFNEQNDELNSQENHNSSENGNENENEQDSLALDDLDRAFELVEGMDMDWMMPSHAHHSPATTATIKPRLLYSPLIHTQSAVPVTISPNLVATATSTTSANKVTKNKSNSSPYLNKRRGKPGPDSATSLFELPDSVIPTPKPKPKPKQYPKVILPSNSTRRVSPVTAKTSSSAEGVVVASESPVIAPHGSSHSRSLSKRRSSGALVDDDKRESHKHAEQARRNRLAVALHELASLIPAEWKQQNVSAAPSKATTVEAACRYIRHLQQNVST
# Experiment: relative binding free energy (BET-seq); higher = weaker binding
# Settings: reference: library average
row,Sequence,relative binding free energy [kcal/mol]
1,GTAGACACGTGGTTCG,0.06
2,TATGGCACGTGAGCTG,-0.01
3,ATGTGCACGTGACTTG,0.03
4,TGGTACACGTGGGATG,0.03
5,ATATTCACGTGGGGAG,0.21
6,TTCAGCACGTGGTTGA,-0.09
7,TGCCTCACGTGGTGGG,0.02
8,GATGGCACGTGTGGGG,0
9,GACATCACGTGGTTTG,0.23
10,ATGCTCACGTGGTAGA,0.14
11,TTCAGCACGTGTTGCG,-0.07
12,AGCGTCACGTGGAGGT,0.03
13,AGGATCACGTGGGAGG,0.1
14,TCTAACACGTGGTGGA,0
15,CGTGACACGTGTTAGT,-0.01
16,GGTTACACGTGTGGGT,0.24
17,GATGTCACGTGGAGGA,0.12
18,GAGGTCACGTGTGAGG,0.27
19,GCAGTCACGTGGGGAG,-0.01
20,ATGCGCACGTGCAGGG,-0.17
21,TGGGTCACGTGGCTAG,0.24
22,GCTGGCACGTGATGGA,0.02
23,CCAGGCACGTGGGGTG,-0.32
24,GGTGGCACGTGTAGAT,0.24
25,TTGTTCACGTGGTCGC,0.23
26,AAGGGCACGTGTGCGA,-0.2

row,Sequence,relative binding free energy [kcal/mol]
1,AGGAACACGTGCTGGG,-0.04
2,AGCTGCACGTGTGAGG,0.1
3,ATATGCACGTGGGTAG,-0.27
4,ACAGACACGTGGTTTT,0.04
5,GATGGCACGTGAATGA,0.18
6,ATTTACACGTGATGTA,0.15
7,CGGTGCACGTGATATT,0.23
8,TGATTCACGTGTGAGA,0.34
9,AAGGCCACGTGGGTAT,-0.12
10,GGTAGCACGTGATCGT,0.29
11,TGGGTCACGTGTTGTC,0.12
12,TGTAACACGTGTATAG,0.08
13,AAAGGCACGTGATGGG,-0.05
14,TCTGTCACGTGAGCGT,0.19
15,AACTGCACGTGTGTAG,0.07
16,GAGGTCACGTGGAGGT,0.21
17,TGTTTCACGTGCTAGT,0.27
18,GTTCGCACGTGATGAG,0.12
19,GAGTACACGTGAGTGT,0.23
20,GTAGACACGTGTCGTT,0.1
21,GTTTACACGTGCATGT,0.02
22,TGGAACACGTGGTCGT,0.22
23,CGCTACACGTGGAGGG,0.1
24,AGATTCACGTGTAGGT,0.24
25,TTGTCCACGTGTTATG,0.05
26,TGTGGCACGTGCTGGT,-0.06

row,Sequence,relative binding free energy [kcal/mol]
1,GTGATCACGTGACGGG,0.14
2,TATTGCACGTGGGAAC,-0.03
3,ATTGCCACGTGTGGTA,-0.04
4,CTGTACACGTGGTATA,0
5,TTAGTCACGTGGTTGA,0.07
6,TTAGTCACGTGTGAAA,0.23
7,GGTATCACGTGGGGTT,0.07
8,AGTAGCACGTGGGTAT,-0.18
9,AGGATCACGTGTGGTG,0.24
10,GTTCTCACGTGGTGGA,0.3
11,TGTGTCACGTGCCATG,0.04
12,TATGTCACGTGAGTCG,0.21
13,GAGTGCACGTGAGGGA,0.14
14,GGTTACACGTGCAAGG,0.35
15,GGTGTCACGTGTATAC,0.07
16,GGTTCCACGTGTTAAG,0.12
17,ATGCTCACGTGGGGGT,0.15
18,ACTTTCACGTGGGATA,0.14
19,TTCATCACGTGTATGA,0.14
20,TTTTCCACGTGTGTAT,0.09
21,CATGACACGTGGTGGA,0.07
22,GTGGGCACGTGACCTG,-0.08
23,TGTTACACGTGCTGGG,0.07
24,ATAGGCACGTGAGAGG,0.03
25,AATGACACGTGTGAAT,0.15
26,TGTCGCACGTGTCGTT,-0.01

row,Sequence,relative binding free energy [kcal/mol]
1,TTTTGCACGTGAAGCG,0.29
2,GAGTACACGTGTTTTT,0.18
3,AGGTCCACGTGCGTGG,-0.04
4,CATGTCACGTGGCGGG,-0.08
5,TTATACACGTGGCTTA,0.15
6,TTGTGCACGTGAGAAA,0.19
7,GGTTTCACGTGGGGGG,0.24
8,TTACTCACGTGAGATT,0.49
9,ATGCACACGTGGCTGG,0.02
10,AGTATCACGTGGCGAT,0.07
11,ATGGGCACGTGATTCG,0.07
12,GTAATCACGTGTTTAA,0.07
13,TGGGGCACGTGCTAGA,-0.16
14,ATGGTCACGTGGAACG,0.07
15,TTAGACACGTGCGGGC,-0.02
16,CGCTACACGTGGGGGG,0.04
17,AGTTACACGTGGCGGG,0.03
18,GTGAACACGTGCCGGG,0.13
19,ATTGACACGTGGGATG,-0.11
20,AGTAGCACGTGGGCGT,-0.34
21,ACGTGCACGTGGTGGG,-0.05
22,CCGGGCACGTGGGTTT,-0.15
23,TGCTACACGTGGTGCT,-0.05
24,GGAATCACGTGTGTGT,0.23
25,GTATACACGTGATGGT,0.25
26,GAGAACACGTGGGTGT,-0.06

row,Sequence,relative binding free energy [kcal/mol]
1,TTGGACACGTGTAAGG,0.1
2,TAGGGCACGTGAAGCG,0.03
3,AGTTGCACGTGTTTTT,0.03
4,TTTTACACGTGCCGTG,0.07
5,GTTATCACGTGAGGAG,0.36
6,CACGGCACGTGTGGGT,-0.1
7,TATGCCACGTGTTTAG,-0.14
8,TTTTGCACGTGGGTAT,-0.11
9,TGGCCCACGTGGGTGG,-0.27
10,TGTGTCACGTGGTAGG,0.06
11,TATTGCACGTGTAGGC,0.05
12,TGGCTCACGTGTAGTA,0.12
13,TATGGCACGTGTGATC,0.06
14,TGTGACACGTGTGTGA,-0.11
15,TTGTGCACGTGCAATT,-0.02
16,ATGTTCACGTGCGTAA,0.1
17,GTGTACACGTGTTTAA,0.09
18,TACGGCACGTGTTTTT,-0.1
19,AAGTACACGTGTATTT,0.07
20,TAGTACACGTGGTGTC,0.06
21,TTAATCACGTGGGGAC,0.08
22,GACTTCACGTGGTTGG,0.29
23,GGTGACACGTGGTATC,0.1
24,AATGACACGTGGCGTG,-0.02
25,ATAGTCACGTGTGATC,0.12
26,AGTGGCACGTGCCTTT,-0.13

row,Sequence,relative binding free energy [kcal/mol]
1,GCTGGCACGTGGTTAA,-0.06
2,TGGACCACGTGAGATG,0.46
3,TTAGACACGTGAGTTA,0.06
4,GGCTTCACGTGGGTGT,0.26
5,ATGGTCACGTGAGTGC,0.07
6,GACGTCACGTGTGTGA,0.13
7,ACTTACACGTGTGGTA,0.19
8,TGGCTCACGTGTGAAT,0.19
9,ATGGGCACGTGGATGG,-0.12
10,TGAAACACGTGCGGTG,-0.03
11,TTTTTCACGTGTTCTT,0.29
12,TACTTCACGTGGGGAT,0.26
13,TTGAACACGTGGGGCG,-0.08
14,AGTTACACGTGCGTTC,0.25
15,CTGGTCACGTGCGGGA,0.15
16,TTTAACACGTGAGGTC,0.28
17,ATACGCACGTGGAGTG,-0.14
18,GTTTACACGTGGTTCA,0.06
19,GGCTGCACGTGGCGTG,-0.05
20,CATGACACGTGGCGGG,0.01
21,GGAAGCACGTGGGGTC,-0.24
22,AGGTGCACGTGTATTA,0.05
23,GGTGGCACGTGGTGGG,-0.1
24,AGGGCCACGTGGTGCT,-0.07
25,GATGGCACGTGGATCG,-0.02
26,AAATTCACGTGTATTT,0.22

row,Sequence,relative binding free energy [kcal/mol]
1,GTCTTCACGTGTTTGT,0.25
2,GGTCACACGTGTGCTG,0.14
3,TGATGCACGTGGTGGG,-0.13
4,AGGGCCACGTGTTAGT,-0.16
5,TGGATCACGTGAGTAG,0.39
6,AATTTCACGTGGGAAG,0.22
7,GTGGGCACGTGCTCAG,-0.12
8,CGTGGCACGTGGTTAG,-0.13
9,GGTCACACGTGTTGTT,0.22
10,CCTTGCACGTGGTTTG,-0.15
11,TTTACCACGTGAGGGT,0.2
12,GTAGGCACGTGTGGCA,-0.06
13,CTAGGCACGTGGTATA,-0.23
14,GAGTCCACGTGGGTGG,-0.12
15,TCGGTCACGTGGGTCA,-0.12
16,ACGGTCACGTGGAGGT,0.24
17,TGAGGCACGTGGTATG,-0.06
18,TTTGTCACGTGGGGAG,0.05
19,TTTTGCACGTGGCGAT,-0.02
20,CGTAGCACGTGGCGGT,-0.32
21,CCTGGCACGTGGGATT,-0.16
22,GCAATCACGTGTAGGG,0.07
23,TTGTGCACGTGCTGCT,-0.15
24,GGGAGCACGTGTTGGA,-0.02
25,TGTCGCACGTGGGTTA,-0.25
26,CTATTCACGTGGGATA,0.13

row,Sequence,relative binding free energy [kcal/mol]
1,AGGTGCACGTGTTTTT,0.09
2,AGGTACACGTGTTAGT,-0.1
3,TTCAACACGTGTGTAT,0.13
4,AGGATCACGTGGGTAC,0.07
5,TATGTCACGTGGACTG,0.07
6,TGTCACACGTGTAGTT,0.02
7,TGTAGCACGTGCGCGT,-0.27
8,CATGTCACGTGTTTAT,0.16
9,GCTGACACGTGGCGGG,-0.02
10,CAGGTCACGTGTATGT,-0.06
11,GATTGCACGTGTTTTA,0.05
12,TCAGGCACGTGTTTGG,-0.03
13,GGAAACACGTGTAGAG,0.21
14,GGTAGCACGTGCAGGT,-0.11
15,GCGTGCACGTGGTGTG,-0.08
16,TTGCTCACGTGGTATT,0.08
17,AGTCACACGTGTTGGG,0.03
18,AGCGGCACGTGGCTGT,-0.08
19,GGTAGCACGTGAATGT,0.3
20,TACATCACGTGTTGGC,0.23
21,GTGGGCACGTGTATTG,-0.04
22,CAGGGCACGTGGCTGG,-0.28
23,AGTATCACGTGTTAGT,0.14
24,GCGAGCACGTGAAGGT,0.2
25,TATCTCACGTGGGTGC,0.18
26,GATGTCACGTGAGGTT,0.5

row,Sequence,relative binding free energy [kcal/mol]
1,TATGGCACGTGGGAGG,-0.18
2,GTTGTCACGTGGTGAC,0.09
3,ATAGGCACGTGGCAGT,-0.33
4,ACCTACACGTGGTGTG,0.12
5,TGTAGCACGTGGTAAT,-0.07
6,AGTTACACGTGGAATT,0.26
7,TGTACCACGTGAGGTG,0.09
8,CAATACACGTGTGTGT,0.09
9,TTGCACACGTGGTGCG,-0.06
10,CGGGACACGTGGGTGA,-0.14
11,GGATACACGTGCGTTT,0.08
12,GTTTACACGTGAGTTG,0.34
13,AGACGCACGTGAGGGG,0.1
14,TAGCGCACGTGGGAAG,-0.17
15,CGGCACACGTGGGTTG,-0.07
16,CTGGTCACGTGGGAGT,-0.02
17,TGTGGCACGTGATGTA,-0.05
18,TCTTTCACGTGGGTTT,0.22
19,GAGTTCACGTGTGTGC,0.31
20,TGGGTCACGTGTCGTA,0.13
21,CGAAGCACGTGGGATT,-0.04
22,AGAGACACGTGATTTT,0.1
